{
  "source": "the BET-seq Pho4 binding data (Le et al. 2018)",
  "note": "Some of the results follow. These are noisy estimates, calculated here from bound and input reads.",
  "data": [
    {"biological_target": "T1, Pho4 (S. cerevisiae) (UniProt P07270)", "T1 sequence": "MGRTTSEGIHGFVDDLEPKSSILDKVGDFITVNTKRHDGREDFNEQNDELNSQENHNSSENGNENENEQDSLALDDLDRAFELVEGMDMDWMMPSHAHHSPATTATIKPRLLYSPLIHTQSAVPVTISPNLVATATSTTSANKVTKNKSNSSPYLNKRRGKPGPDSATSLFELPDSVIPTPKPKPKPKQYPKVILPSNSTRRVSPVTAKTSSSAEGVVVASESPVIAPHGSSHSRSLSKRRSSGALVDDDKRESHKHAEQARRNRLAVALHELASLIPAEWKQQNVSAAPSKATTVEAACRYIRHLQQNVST", "test": "relative binding free energy (BET-seq); higher = weaker binding", "settings": "reference: library average", "units": {"relative binding free energy": "kcal/mol"}, "values": [
      {"sequence": "ACGGTCACGTGATGTG", "relative binding free energy": 0.19},
      {"sequence": "GTATGCACGTGTGTGA", "relative binding free energy": -0.02},
      {"sequence": "TTTCTCACGTGAGAGG", "relative binding free energy": 0.5},
      {"sequence": "GATTGCACGTGGGAGG", "relative binding free energy": -0.05},
      {"sequence": "TTCTGCACGTGGGCTG", "relative binding free energy": -0.16},
      {"sequence": "GTGCGCACGTGATTTT", "relative binding free energy": 0.22},
      {"sequence": "CTTGGCACGTGGGTGC", "relative binding free energy": -0.28},
      {"sequence": "GTAGCCACGTGGGGCT", "relative binding free energy": -0.23},
      {"sequence": "TGAGGCACGTGGTGAG", "relative binding free energy": -0.18},
      {"sequence": "ATACTCACGTGGGTTG", "relative binding free energy": -0.1},
      {"sequence": "TATTTCACGTGGAGAC", "relative binding free energy": 0.36},
      {"sequence": "TGATACACGTGTGTGA", "relative binding free energy": 0.02},
      {"sequence": "TCTGTCACGTGTGTCG", "relative binding free energy": 0.13},
      {"sequence": "TTTGTCACGTGCGGTG", "relative binding free energy": 0.03},
      {"sequence": "GGATTCACGTGGGGTA", "relative binding free energy": 0.18},
      {"sequence": "TGGGTCACGTGAGTAT", "relative binding free energy": 0.33},
      {"sequence": "CGATTCACGTGATGAT", "relative binding free energy": 0.43},
      {"sequence": "GTTCACACGTGGGGGG", "relative binding free energy": -0.04},
      {"sequence": "AGGTGCACGTGTACGG", "relative binding free energy": -0.02},
      {"sequence": "CTCGTCACGTGTATTT", "relative binding free energy": 0.22},
      {"sequence": "AATGTCACGTGTTGAA", "relative binding free energy": 0.1},
      {"sequence": "ATTTACACGTGAGAGG", "relative binding free energy": 0.27},
      {"sequence": "TAACACACGTGGGGGG", "relative binding free energy": -0.22},
      {"sequence": "AGGGGCACGTGGGGAC", "relative binding free energy": -0.14},
      {"sequence": "CAGGTCACGTGGGTAG", "relative binding free energy": -0.01},
      {"sequence": "GAAGTCACGTGGGCAG", "relative binding free energy": 0.12},
      {"sequence": "AGGAGCACGTGTGGGC", "relative binding free energy": -0.07},
      {"sequence": "TAAAGCACGTGTTGTA", "relative binding free energy": -0.13},
      {"sequence": "AGATCCACGTGGGAAG", "relative binding free energy": 0.08},
      {"sequence": "ATGCTCACGTGAGGGT", "relative binding free energy": 0.3},
      {"sequence": "GCTGACACGTGCGGGT", "relative binding free energy": 0.06},
      {"sequence": "AGTGGCACGTGAAACG", "relative binding free energy": 0.16},
      {"sequence": "TATTGCACGTGGGTGT", "relative binding free energy": -0.23},
      {"sequence": "TATGGCACGTGTCTCG", "relative binding free energy": -0.02},
      {"sequence": "GAGGGCACGTGGGGCC", "relative binding free energy": -0.21},
      {"sequence": "TTCTACACGTGTGTAG", "relative binding free energy": 0.22},
      {"sequence": "GTGGACACGTGGACGT", "relative binding free energy": 0.05},
      {"sequence": "TTGGACACGTGGTCGC", "relative binding free energy": 0.04},
      {"sequence": "CTAATCACGTGGAGGT", "relative binding free energy": 0.14},
      {"sequence": "AAGTGCACGTGATGAG", "relative binding free energy": 0.13},
      {"sequence": "TTATTCACGTGCGGGC", "relative binding free energy": 0.34},
      {"sequence": "GTGGTCACGTGGCAGG", "relative binding free energy": 0.06},
      {"sequence": "ATCGTCACGTGGTCTT", "relative binding free energy": 0.23},
      {"sequence": "GTTTCCACGTGGGGCT", "relative binding free energy": -0.01},
      {"sequence": "TCGGGCACGTGGTTGT", "relative binding free energy": -0.12},
      {"sequence": "GTTGACACGTGGGGGG", "relative binding free energy": -0.09},
      {"sequence": "GATCTCACGTGGCGTG", "relative binding free energy": 0.26},
      {"sequence": "GGAAACACGTGGGTAA", "relative binding free energy": -0.04},
      {"sequence": "GGATGCACGTGGTAGT", "relative binding free energy": 0},
      {"sequence": "GTGTGCACGTGTGTTC", "relative binding free energy": 0.03},
      {"sequence": "AATCGCACGTGCTGTG", "relative binding free energy": 0.02},
      {"sequence": "TTGCGCACGTGGTGGT", "relative binding free energy": -0.19},
      {"sequence": "AGGAGCACGTGTTGGG", "relative binding free energy": -0.17},
      {"sequence": "ATGTGCACGTGTAAGG", "relative binding free energy": 0.14},
      {"sequence": "AGGTTCACGTGGGCGG", "relative binding free energy": 0.12},
      {"sequence": "CGTTACACGTGGTTAT", "relative binding free energy": -0.05},
      {"sequence": "AATATCACGTGGGTAA", "relative binding free energy": -0.06},
      {"sequence": "CGTGGCACGTGTGCTA", "relative binding free energy": -0.04},
      {"sequence": "AAAGTCACGTGGTAAG", "relative binding free energy": 0.03},
      {"sequence": "TGGTTCACGTGAGCCG", "relative binding free energy": 0.38},
      {"sequence": "TCCTGCACGTGGTGGT", "relative binding free energy": -0.13},
      {"sequence": "GGGGACACGTGCGTAG", "relative binding free energy": 0.04},
      {"sequence": "CGTGACACGTGGCAGG", "relative binding free energy": -0.1},
      {"sequence": "TTTTCCACGTGGTTTA", "relative binding free energy": -0.06},
      {"sequence": "GGTTGCACGTGGATGA", "relative binding free energy": 0.07},
      {"sequence": "CTTTTCACGTGTTTTG", "relative binding free energy": 0.18},
      {"sequence": "CAGGACACGTGTAGTG", "relative binding free energy": -0.04},
      {"sequence": "GTTTTCACGTGTTGTA", "relative binding free energy": 0.34},
      {"sequence": "CTGTTCACGTGATTGG", "relative binding free energy": 0.3},
      {"sequence": "AGATTCACGTGTCAGG", "relative binding free energy": 0.4},
      {"sequence": "GATGACACGTGAGGGC", "relative binding free energy": 0.29},
      {"sequence": "CTAGTCACGTGTTATG", "relative binding free energy": 0.17},
      {"sequence": "AATATCACGTGTGAGT", "relative binding free energy": 0.12},
      {"sequence": "TTTATCACGTGCAGGT", "relative binding free energy": 0.29},
      {"sequence": "GCATGCACGTGGGATT", "relative binding free energy": -0.04},
      {"sequence": "TGGATCACGTGACGAG", "relative binding free energy": 0.33},
      {"sequence": "AAGATCACGTGAGTGT", "relative binding free energy": 0.26},
      {"sequence": "GGCTTCACGTGGGTAA", "relative binding free energy": 0.29},
      {"sequence": "GGTTACACGTGTGTTA", "relative binding free energy": 0.08},
      {"sequence": "TTGGTCACGTGTCGGT", "relative binding free energy": 0.25},
      {"sequence": "AGAGTCACGTGTATAG", "relative binding free energy": 0.13},
      {"sequence": "AAGTGCACGTGTTGGC", "relative binding free energy": 0.1},
      {"sequence": "CGGTTCACGTGGTAGG", "relative binding free energy": 0.23},
      {"sequence": "TGGTTCACGTGTCTTT", "relative binding free energy": 0.24},
      {"sequence": "GGGTACACGTGTTTAG", "relative binding free energy": 0.06},
      {"sequence": "AGTTTCACGTGTACTG", "relative binding free energy": 0.22},
      {"sequence": "GTGACCACGTGTGGTT", "relative binding free energy": 0.06},
      {"sequence": "AGGTTCACGTGGAGTT", "relative binding free energy": 0.38},
      {"sequence": "GGGAGCACGTGTCGGT", "relative binding free energy": -0.21},
      {"sequence": "TTAAGCACGTGTATAG", "relative binding free energy": -0.02},
      {"sequence": "ACGTACACGTGTTGGT", "relative binding free energy": 0.11},
      {"sequence": "AGTGCCACGTGTAGTT", "relative binding free energy": 0.03},
      {"sequence": "TGTGGCACGTGGACAA", "relative binding free energy": -0.1},
      {"sequence": "GGCTCCACGTGGATGG", "relative binding free energy": 0.19},
      {"sequence": "GAGGGCACGTGGGCTT", "relative binding free energy": -0.25},
      {"sequence": "GGTGACACGTGGAGGG", "relative binding free energy": 0.03},
      {"sequence": "GGTAACACGTGAGGGC", "relative binding free energy": 0.11},
      {"sequence": "GATACCACGTGAGGGT", "relative binding free energy": 0.3},
      {"sequence": "GGGGCCACGTGGTGCG", "relative binding free energy": -0.1},
      {"sequence": "GAGTACACGTGATGGT", "relative binding free energy": 0.28},
      {"sequence": "TTGGCCACGTGTGGAA", "relative binding free energy": 0.05},
      {"sequence": "GGGGGCACGTGCAGTT", "relative binding free energy": -0.13},
      {"sequence": "GGATGCACGTGAATAG", "relative binding free energy": 0.29},
      {"sequence": "GTTAACACGTGGTAGA", "relative binding free energy": -0.08},
      {"sequence": "GGAGTCACGTGTCGGC", "relative binding free energy": 0.26},
      {"sequence": "TGTTTCACGTGTGGAC", "relative binding free energy": 0.29},
      {"sequence": "CTAGTCACGTGTTAAG", "relative binding free energy": 0.09},
      {"sequence": "ATCGACACGTGGGGGA", "relative binding free energy": -0.06},
      {"sequence": "TTCTGCACGTGAATGG", "relative binding free energy": 0.28},
      {"sequence": "TGTAGCACGTGTTATC", "relative binding free energy": -0.04},
      {"sequence": "TTGGTCACGTGGTTTT", "relative binding free energy": 0.21},
      {"sequence": "GGTAGCACGTGAGACG", "relative binding free energy": 0.19},
      {"sequence": "TTCTGCACGTGTTAGT", "relative binding free energy": 0.09},
      {"sequence": "TAGATCACGTGGGGAG", "relative binding free energy": 0.01},
      {"sequence": "TGCGGCACGTGGACGG", "relative binding free energy": 0.04}
    ]}
  ]
}
